Reference: the supplement of paper PMC10338343
± gives the standard deviation. The entries are a selection whose mix differs from that of the whole data set.

system: MIWI (PIWIL1) piRISC loaded with L1MC piRNA (30 nt); assay: pre-steady-state target cleavage rate (min^-1); MIWI and MILI are mouse PIWI proteins and EfPiwi is from a freshwater sponge; tags in brackets are library labels; higher = faster piRNA-guided slicing of the target; details: guide: L1MC piRNA 5'p-UAACUAAAUACUAUGCAAGCUGUAGGUCCU; auxiliary factor: none (no GTSF1)
Procedure, shortened: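 Sequencing of uncleaved targets, normalised to depth and to weakly complementary targets, was the readout of this Cleave-'n-Seq assay. A transcribed, DNA-blocked target RNA library (0.1 nM) was mixed with 1 nM active affinity-purified piRISC carrying one synthetic guide, with or without 500 nM GTSF1 partner protein, in HEPES–potassium acetate buffer at 33 °C for 0–8 or 0–960 min. Three trials were pooled, k3 was capped at 0.0001 min^-1, and a burst-and-steady-state fit gave the pre-steady-state cleavage rate.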

Row | Sequence | pre-steady-state target cleavage rate
1 | UCCUGGAUGUCGAACGUAUCUAUUUAGUA | < 0.0001
2 | UCCUGGAUGUCGAACGAUAUAUUUAGUUA | < 0.0001
3 | UCCUGGAUGUGCUUGGUUAGUAUUUAGUAA | 0.00345 ± 0.0031
